The text below walks through data of doi:10.1101/2025.01.09.632086, “The N-terminal order-disorder transition is a critical determinant for a metamorphosis of IscU” (bioRxiv, 2025).

To fix the notation:
B1: IscU I8K (natural protein, E. coli)
chain: MAYSEKVKDHYENPRNVGSFDNNDENVGSGMVGAPACGDVMKLQIKVNDEGIIEDARFKTYGCGSAIASSSLVTEWVKGKSLDEAQAIKNTDIAEELELPPVKIHCSILAEDAIKAAIADYKSKREAK
notes: IscU of E. coli (UniProt P0ACD4) with the single substitution I8K, made by site-directed mutagenesis of the pTrc99A-based IscU WT plasmid; source: E. coli BL21[DE3], purified (HiTrap Q HP, Superdex 75)
B2: IscU Y11A (natural protein, E. coli)
chain: B1 chain with K8I, Y11A
notes: IscU of E. coli (UniProt P0ACD4) with the single substitution Y11A, made by site-directed mutagenesis of the pTrc99A-based IscU WT plasmid; source: E. coli Rosetta[DE3], purified (HiTrap Q HP, Superdex 75)
B3: IscU R15A (natural protein, E. coli)
chain: B1 chain with K8I, R15A
notes: IscU of E. coli (UniProt P0ACD4) with the single substitution R15A, made by site-directed mutagenesis of the pTrc99A-based IscU WT plasmid; source: E. coli BL21[DE3], purified (HiTrap Q HP, Superdex 75)

Where a chain is given by its changes, count along the chain named. In names and notes the source's numbering stands.

The assay has as its target T1, HscA (E. coli, UniProt P0A6Z1 1-616).
T1 construct: HscA, Hsp70-like protein of E. coli Fe-S cluster biogenesis; source: E. coli BL21[DE3], purified (HisTrap, Ulp1 cleavage, reverse HisTrap, Superdex 75); not shown: His6, N-terminal, cleaved; SUMO, N-terminal, cleaved
T1 sequence (looked up): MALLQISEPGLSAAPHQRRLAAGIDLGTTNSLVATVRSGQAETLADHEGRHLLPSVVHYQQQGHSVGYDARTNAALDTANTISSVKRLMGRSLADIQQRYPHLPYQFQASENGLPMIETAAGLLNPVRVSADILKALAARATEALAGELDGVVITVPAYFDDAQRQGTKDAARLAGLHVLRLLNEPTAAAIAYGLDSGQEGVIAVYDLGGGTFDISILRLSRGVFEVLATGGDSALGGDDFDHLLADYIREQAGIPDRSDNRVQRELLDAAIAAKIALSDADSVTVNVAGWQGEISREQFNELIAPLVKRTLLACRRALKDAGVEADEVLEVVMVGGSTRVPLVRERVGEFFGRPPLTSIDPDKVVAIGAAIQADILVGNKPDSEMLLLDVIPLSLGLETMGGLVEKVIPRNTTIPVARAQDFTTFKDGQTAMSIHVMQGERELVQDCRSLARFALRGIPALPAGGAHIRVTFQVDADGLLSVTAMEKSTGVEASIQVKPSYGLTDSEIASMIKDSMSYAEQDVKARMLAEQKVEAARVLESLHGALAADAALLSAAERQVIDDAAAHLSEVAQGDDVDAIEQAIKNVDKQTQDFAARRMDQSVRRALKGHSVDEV
The experiment in a line: ITC; 1.5 mM IscU in the syringe, 25 injections into 0.15 mM HscA in the cell; 25 °C; 20 mM Tris-HCl, 150 mM NaCl, 0.5 mM EDTA, 5 mM TCEP, pH 8.0. To be noted: both partners purified. A general note: ITC needs no label: the signal is the heat of the interaction.
For B1, the binding result is reported as “binds”.
For B2, the binding result is on record as “binds”.
Under B3 stands “binds”.
